Data from PubChem BioAssay (NCI).
“And” between values parts separate entries of the source, which are not always exact repeats. Equal values may be shown once.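 Following 48 hours of exposure in 96-well plates, responses at five concentrations were used to interpolate endpoints linearly. GI50 = concentration required for 50% inhibition of growth. TGI denotes the concentration required for complete inhibition of growth.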

System: NCI-H322M lung
Experiment: growth of human tumour cells (NCI), 48 h

| SMILES | TGI | GI50 |
| --- | --- | --- |
| Cc1ccc(S(=O)(=O)N/N=C2\C3CC4CC(C3)C2C4)cc1 (centres undefined) | > 100 µM | – |
| COc1ccc(-c2cc(/C=C/C(=O)c3cc(OC)c(OC)c(OC)c3)[nH]n2)cc1OC | 6.04 µM | 2.02 µM |
| CC(=O)Nc1ccc(C(=O)N2N=C(C)/C(=C/c3ccc(O)cc3)C2=O)cc1 | > 100 µM | – |
| CCCCCCCCCCCCCCCCS(=O)(=O)c1ccc(NN)cc1 | > 10 µM | – |
| C/C(=N/NC(=O)CC(=O)N(C(=O)c1ccccc1Cl)c1ccc(C)cc1)c1cc2ccccc2oc1=O | > 100 µM | – |
| CCc1cccc(CC)c1/C=C/c1cncc(C(=O)NC)c1 | > 25 µM | > 25 µM |
| CC[P+]1(CC)CCCC1 | > 100 µM | – |
| OC12CCCCCC1(N1CCOCC1)c1ccccc12 (centres undefined) | > 100 µM | – |
| COC(=O)C(C(=O)C(=O)NC1Nc2ccc(C)cc2S1)c1nc2ccc(Cl)cc2[nH]c1=O (centres undefined) | > 100 µM | – |
| CC(C)(C)c1ccc(-c2nnc(-c3cc(C#N)cc(-c4nnc(-c5ccc(C(C)(C)C)cc5)o4)c3)o2)cc1 | > 100 µM | – |
| COc1ccc(C(=O)c2ccc(-n3cc(/C=C/[N+](=O)[O-])c4ccccc43)cc2)cc1 | > 100 µM | – |
| c1ccc(CC(NCCNC(Cc2ccccc2)c2ccccc2)c2ccccc2)cc1 (centres undefined) | 3.77 µM | 1.12 µM |
| c1ccc(NC[Si]23OCCN(CCO2)CCO3)cc1 | > 100 µM | – |
| C=CC(=O)Nc1cccc(Nc2nc(Nc3ccc(OCCOC(F)F)cc3)ncc2F)c1 | > 100 µM | 1.33 µM |
| O=C(O)C1C(C(=O)O)C2(Cl)C(Cl)=C(Cl)C1(Cl)C2(Cl)Cl.[Cd] (centres undefined) | 35 µM | 17.5 µM |
| CCCNC(=O)CCC(C)[C@H]1CCC2C3C(C[C@H](OC(C)=O)[C@@]21C)[C@@]1(C)CCC2(C[C@H]1C[C@H]3OC(C)=O)OOC1(CCCCC1)OO2 (some centres undefined) | > 100 µM | – |
| Nc1ncnc2c1c(-c1ccc(Oc3ccccc3)cc1)nn2C[C@@H]1SSC[C@@H]1O | 18.1 µM | 2.24 µM |
| C[C@@]12CCCC(=O)N1[C@@H](CO)C(c1ccccc1)O2 (some centres undefined) | > 100 µM | – |
| C=CC1=CC(C)C[C@]1(O)C(=O)OC (some centres undefined) | – | > 100 µM |
| C[N+](C)=c1nc(N2CCOCC2)ss1 | > 100 µM | – |
| O=C1C=C(N2CCN(c3ccccn3)CC2)C(=O)c2c(O)ccc(O)c21 | 42.7 µM | – |
| Nc1ncc(/C=N/O)c(NCC2(CO)CC(CCc3ccccc3)C2)n1 (centres undefined) | 24.2 µM | – |
| O=C1CSC2(CC(/C=C/c3ccccc3Br)=NN2c2cccc(S(=O)(=O)O)c2)N1c1nc2ccccc2s1 (centres undefined) | > 100 µM | – |
| COC(=O)c1cc2c3c(ccc2[nH]1)N(C(=O)c1cc2c4c(ccc2[nH]1)N(C(=O)c1cc2c5c(ccc2[nH]1)N(C(N)=O)CC5)CC4)CC3 | > 100 µM | – |

| SMILES | TGI | GI50 |
| --- | --- | --- |
| Cn1cnc([N+](=O)[O-])c1Sc1nc(N)nc2nc[nH]c12 | > 100 µM | 13.5 µM |
| COC(=O)c1c(OC)cc2cc3c(c(O)c2c1C)C(=O)C1(O)C(=O)C=C(OC)C(OC(=O)CC(C)N)=C1C3=O (centres undefined) | > 100 µM | – |
| CC1=C(C(=O)CC(=O)C(=O)NC2C3CC4CC(C3)CC2C4)Sc2ccccc2N1 (centres undefined) | > 100 µM | – |
| COC1=CC(=O)C2=C(C1=O)[C@H]1CC[C@]3(C)[C@@H](OC(C)=O)CC[C@H]3[C@@H]1CC2 | > 100 µM | – |
| CO[P@]1(=O)O[C@@H](c2ccccc2)[C@H](O)[C@@]1(O)c1ccccc1 | > 100 µM | – |
| CNc1ccc(S(=O)Nc2ccccc2)cc1 (centres undefined) | > 100 µM | – |
| Cc1cc2n([O-])cccc-2[n+](=O)c1 | > 100 µM | – |
| COc1ccc(NC(=O)c2sc3nc4c(cc3c2N)CCCC4)cc1 | > 100 µM | 6.07 µM |
| CN(C)CCCN1c2ccccc2Sc2ccc(Cl)cc21 | 19.5 µM and 13.3 µM | 6.3 µM and 3.22 µM |
| NC(=O)C(=O)n1ncc(Cl)c(Cl)c1=O | > 89.7 µM | – |
| O=C1/C(=C\c2cccc(Oc3ccccc3)c2)SC(c2ccccc2)N1c1cccc([N+](=O)[O-])c1 (centres undefined) | > 100 µM | – |
| COC(=O)CC(NC(=O)OCc1ccccc1)C(C(=O)OCc1ccccc1)C1(C)OCCO1 (centres undefined) | > 100 µM | – |
| CC12CC(C/C1=N/O)C(C)(C)C2 (centres undefined) | > 100 µM | – |
| COc1cc(-n2cc(-c3cc(O)c(C/C=C(\C)CCC=C(C)C)c(O)c3)nn2)cc2c1O[C@]1(C)CC[C@@H](O)C(C)(C)[C@H]1C2 | 30.8 µM | 4.01 µM |
| CC1(C)OC(COCCOCCCCCO)C(COCCOCCCCCO)O1 (centres undefined) | > 100 µM | – |
| N#CCCC1(CCC#N)CCCCCCC(CCC#N)(CCC#N)C(O)C1O (centres undefined) | > 100 µM | – |
| CC(=O)Oc1ccc(C2(c3ccc(OC(C)=O)cc3)C(=O)Nc3ccccc32)cc1 | > 100 µM | 1.24 µM and 0.699 µM |
| CC(c1ccccc1)N1CC(C)(c2ccccc2)N(O)C(c2ccccc2)C1C (centres undefined) | 68.8 µM | – |
| CC1(C)[C@@H]2CC[C@@]1(C)[C@H](O)[C@@H]2SCc1ccccc1 | 38.5 µM | – |
| Cc1cc(NC(=O)NC(=O)c2ccccc2N(C)C)ccc1Oc1ncc(Br)cn1 | > 63.1 µM | 1.48 µM |
| O=c1oc2ccc(F)cc2c(=O)n1-c1ccc(Br)cc1F | 24.5 µM | 0.434 µM |
| CCOC(=O)C[C@@]12CCCNC1(C)CCc1ccccc12 (some centres undefined) | > 100 µM | – |
| C/C(=C\Cc1cc(O)ccc1O)CCc1c(C)cc(O)c(C=O)c1C | 92.1 µM | – |
| CC12OC(C(=O)C13CCC3)C1C(=O)c3ccccc3C(=O)C12 (centres undefined) | > 100 µM | > 100 µM |

| SMILES | TGI | GI50 |
| --- | --- | --- |
| Cc1ccc(/C=C2\CN(C)CC3C2=NC(=S)NC3c2ccc(C)cc2)cc1 (centres undefined) | > 100 µM | – |
| C=C1CC(Cn2cc(Br)c(=O)[nH]c2=O)(c2ccc(-c3ccccc3)cc2)OC1=O (centres undefined) | 20.3 µM | – |
| Fc1cc(-c2nnc3n2N=C(c2ccc(Cl)cc2Cl)CS3)c(Cl)cc1Cl | > 100 µM | 76.4 µM |
| CC(=O)NC1=C(NCC(C)C)C(=O)c2ccccc2C1=O | > 100 µM | – |
| COc1ccc(C(=O)C[C@]2(O)C(=O)Nc3c(Cl)ccc(Cl)c32)cc1 | > 100 µM | 2.11 µM |
| CC12CC(c3ccccc3O1)C(C(=O)Nc1cccc(F)c1)C(=O)N2 (centres undefined) | > 100 µM | – |
| O=[N+]([O-])/C=C/c1cn(CCCCCn2cc(/C=C/[N+](=O)[O-])c3ccccc32)c2ccccc12 | 89.2 µM | – |
| NC(=O)c1c[se]c(C2OC(COP(=O)(O)CP(=O)(O)OCC3OC(n4cnc5c(N)ncnc54)C(O)C3O)C(O)C2O)n1 (centres undefined) | > 100 µM | – |
| CCN(CC)CCOc1ccc(/C=C2\CC3C4CC=C5C[C@@H](OC(C)=O)CC[C@]5(C)C4CC[C@]3(C)C2=O)cc1OC (some centres undefined) | 19.9 µM | 7.86 µM |
| CC(C)(CO)N=Cc1ccccc1[O-].CC(C)(CO)N=Cc1ccccc1[O-].[Co+2] | > 100 µM | > 85.5 µM |
| Cc1c(C(=O)OCc2ccccc2)[n+](=O)c2cc(F)c(F)cc2n1[O-] | 4.8 µM | – |
| CC1(C)CCC2(C(=O)OC3OC(CO)C(O)C(O)C3O)CCC3(CO)C(=CCC4C5(C)CC(O)C(O)C(C)(C(=O)OC6OC(CO)C(O)C(O)C6O)C5CCC43C)C2C1 (centres undefined) | > 100 µM | – |
| O=C(Nc1ccc(Cl)cc1)Nc1ccccc1CNc1nc(Nc2ccc(OCCN3CCCC3)cc2)ncc1Cl | 6.34 µM | 1.56 µM |
| Cc1cn([C@H]2[C@@H](CO)C[C@H]2O)c(=O)[nH]c1=O | > 100 µM | – |
| CC(=O)[CH-]C(=O)c1ccccc1.CC(=O)[CH-]C(=O)c1ccccc1.[CH2-]CCC.[CH2-]CCC.[Sn+4] | 2.89 µM | 1.55 µM |
| O=C(c1ccco1)C1CC(c2ccc3ccccc3c2O)=NN1c1ccc([N+](=O)[O-])cc1[N+](=O)[O-] (centres undefined) | > 100 µM | – |
| COc1nc2c(c(O)c(C)c(=O)n2OC2OC(COC(C)=O)C(OC(C)=O)C(OC(C)=O)C2OC(C)=O)c(=O)n1C (centres undefined) | > 100 µM | – |
| CN(C)CCCC1(c2ccc(F)cc2)OCc2cc(-c3cncc4ccccc34)ccc21 (centres undefined) | 14.1 µM | 3.65 µM |
| CC(=O)O[C@H]1C(=O)N(c2cc3c4ccccc4ccc3c3ccccc23)[C@@H]1c1ccccc1 | 57.1 µM | – |
| O=c1oc2ccc(Cl)cc2cc1-c1cn2ccsc2n1 | > 100 µM | – |
| COC(=O)[C@H](Cc1ccccc1)NC(=O)c1csc([C@@H](C[C@H](C(C)C)N(C)C(=O)[C@@H](NC(=O)[C@H]2CCCN2C)C2CC2)OC(C)=O)n1 | > 33.3 µM | 2.18 µM |
| CC1=C2NCN(C)N=C2C(C#N)(C#N)C1(C#N)C#N | > 100 µM | – |
| C=CCOC(=O)CCCCCCCCCCCCCCCOC(=O)C1=C(CCC[C@@H](C)O[Si](C)(C)C(C)(C)C)NC(=O)N2[C@H](CC3(CC/C=C\[C@H](CC)O[Si](C(C)C)(C(C)C)C(C)C)OCCO3)CC[C@H]12 | > 100 µM | – |
| CC/C(Cl)=N\OC(=O)Nc1ccc(F)cc1F | 33.1 µM | – |

| SMILES | TGI | GI50 |
| --- | --- | --- |
| NS(=O)(=O)c1ccc(NC(=O)c2cccn3c(=O)c4ccccc4nc23)cc1 | > 100 µM | – |
| Cc1cc(=O)[nH]c(NNC(C#N)c2ccc([N+](=O)[O-])cc2)n1 (centres undefined) | > 100 µM | – |
| O=P(O)(O)CN1CCNCCN(CP(=O)(O)O)CCNCC1 | > 100 µM | – |
| C/C(=N\Nc1ccccc1)C(CN(C)C)C(c1ccccc1)c1c(O)c2ccccc2oc1=O (centres undefined) | > 100 µM | – |
| O=C1OI(C#Cc2ccccc2)c2ccccc21 | 27.2 µM | – |
| CCOC(=O)CCCn1cc(C(=O)OC)nn1 | > 100 µM | – |
| COc1ccc(C=Nc2ccc(-c3nc4ccccc4[nH]3)cc2)cc1OC | > 100 µM | – |
| c1ccc(OCCSCCCCCCCCCCSCCOc2ccccc2)cc1 | > 100 µM | – |
| CC(C)(C)OC(=O)N1CCc2c(n(C/C=C/c3ccccc3)[nH]c2=O)C1 | > 100 µM | – |
| CC(C)(C)c1c(C(C)(C)C)c(=O)c1=O | > 100 µM | – |
| C/C(=N\n1c(N)c(C#N)c(-c2ccc(Cl)cc2)c(C#N)c1=O)c1ccncc1 | > 100 µM | 4.73 µM |
| CC(=O)CC1(C)OC(N)=C(C#N)C1(C#N)C#N (centres undefined) | > 100 µM | – |
| COC(=O)/C=C/c1ccc2c(c1)CC1(Cc3ccccc3C1)C2 | > 100 µM | – |
| O=[N+]([O-])C1C2C=CC(C2)[C@H]1c1ccc(Cl)cc1Cl (some centres undefined) | > 100 µM | – |
| CC[C@H](C)[C@H](NC(=O)[C@H]1CCCCN1C)C(=O)N(C)[C@H](C[C@@H](OC(C)=O)c1nc(C(=O)N[C@@H](Cc2ccccc2)C[C@H](C)C(=O)OC)cs1)C(C)C | – | 0.000644 µM |
| CC1(C)COC(c2c(-c3ccccc3)noc2CS(=O)c2ccccc2)=N1 (centres undefined) | > 100 µM | – |
| COc1cc([C@H]2c3[nH]c4ccccc4c3C[C@H]3COC(=O)N32)cc(OC)c1O | > 100 µM | – |
| CCOC(=O)c1nc2ccccc2nc1NCc1ccc(Cl)cc1Cl | > 100 µM | – |
| Cc1ccc2c(c1)CC1(C2=O)[C@H](c2ccccc2)C2C(=O)c3ccc(C)cc3C2[C@H]1c1ccccc1 (some centres undefined) | > 100 µM | – |
| COc1cc(O)c(C(C)=O)c(O)c1 | > 100 µM | – |
| COc1ccc(C2NCCc3c2[nH]c2ccccc32)cc1 (centres undefined) | > 100 µM | – |
| CC(C)(C)c1cc(CCC(=O)Nc2ccc(Cl)cc2Cl)nc(N)n1 | > 100 µM | – |
| CCCn1cnc2c(SCc3ccccc3)nc(N)nc21 | > 100 µM | > 100 µM |
